Results as given in PubChem BioAssay AID686979 (National Center for Advancing Translational Sciences (NCATS), 2013).
Several values for one entry are separate records, joined by “and”; a condition that tells them apart may be missing. Equal entries are not always repeated. About 50,000 (12%) of roughly 420,000 compounds were called active. This list was built around the results that the source calls inconclusive (neither active nor inactive); the mix of calls is not that of the screen. The call rests on the fitted dose curve; in most records, active means well fitted inhibition curve with a large enough effect; inconclusive means small, poorly fitted or top-dose-only effect; inactive means flat fitted curve, though single readings scatter. A potency beside an inconclusive call is a rough fit, not a confirmed value.

assay: qHTS for Inhibitors of human tyrosyl-DNA phosphodiesterase 1 (TDP1): qHTS in cells in presence of CPT; details: chicken DT40 Tdp1-/-;hTDP1 cells + 20 nM CPT, ATP luminescence, 48 h; series mostly up to 46.2 µM; further: nearly all actives have a fitted effect of over 55% in size
Outline: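 Chicken DT40 Tdp1-/- cells complemented with human TDP1, 400 cells/well, exposed to compounds plus 20 nM camptothecin for at least 48 h at 37 C; viability read as ATP content by CellTiter-Glo luminescence.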
Potency means the concentration at half of the fitted maximal effect; tags describe the fitted curve by direction and shape.

SMILES	Potency
Cc1c(C)n(C)c2ccc(C(=O)NCCN3CCOCC3)cc12	inactive
COC(=O)CCCC(=O)N1CCCC(C(=O)c2ccc(-c3ccccc3)cc2)C1 (configuration not stated)	inconclusive: 16.4 µM [inhibitor, single point]
CC(C)N1CCC(C)(C(=O)Nc2cccc(Oc3ccccc3)c2)C1 (configuration not stated)	inconclusive: 20.6 µM [inhibitor, single point]
CCOc1ccc(NC(=O)NNC(=O)c2cc3ccccc3cc2O)cc1	inactive
O=C(c1csc2ccccc12)N1CCN(c2ccc(Cl)c(Cl)c2)CC1	active: 20.6 µM
COc1ccc(C(=O)O/N=C(\N)c2ccc(OC)c(OC)c2)c(OC)c1	inconclusive: 23.1 µM [inhibitor, single point]
CCc1ccc2[nH]c3nc(SCC(=O)NNC(=O)c4ccc(C(C)(C)C)cc4)nnc3c2c1	active: 20.6 µM
O=C(Nc1ccccc1)c1ccc(S(=O)(=O)NCc2ccco2)cc1	inconclusive: 25.9 µM [inhibitor, single point]
COc1ccccc1CNc1cc(-c2cccc(C#N)c2)ncn1	inactive
N#Cc1ccccc1NC(=O)C(=O)NCC(c1cccnc1)N1CCc2ccccc2C1 (configuration not stated)	inconclusive: 29.1 µM [inhibitor, single point]
CC(=O)Nc1ccc(S(=O)(=O)Nc2cccc(C(=O)NC(C)(C)C)c2)cc1	inconclusive: 23.1 µM [inhibitor, single point]
O=c1[nH]c(C(F)(F)F)nc2c1nc1n2CCC1	inactive
CC(C)(C)NC(=O)CN(C(=O)CS(=O)CC(=O)Nc1ccc(F)cc1)c1ccc(Cl)cc1 (configuration not stated)	inactive
Cc1ccc(-c2cc(C(F)F)n3ncc(C(=O)N4CCN5CCCC5C4)c3n2)cc1 (configuration not stated)	active: 14.6 µM
CCOC(=O)c1cc(-c2ccc3c(c2)OCCO3)nc2c1c(C)nn2CCC#N	inconclusive: 18.4 µM [inhibitor, single point]
O=C(c1ccc(S(=O)(=O)N2CCCCC2)cc1)N1CCCC(C(F)(F)F)C1 (configuration not stated)	inactive
NC(=O)Cc1nc(-c2ccc([N+](=O)[O-])cc2)cs1	active: 10.3 µM
O=C(NC1(C(F)(F)F)Oc2ccccc2O1)N1CCCC1	inconclusive: 29.1 µM [inhibitor, single point]
CCCCN(C)c1ncnc2c1cnn2-c1cccc(Cl)c1	active: 23.1 µM
COc1ccc(OC)c(CCNC(=O)C(C)n2nc(C)c3c(C)n(-c4ccc(C)cc4)nc3c2=O)c1 (configuration not stated)	inconclusive: 16.4 µM [inhibitor, single point] and inconclusive: 18.4 µM [inhibitor, single point]
CSc1ccccc1NC(=O)Nc1cccc2ccccc12	inactive
Cc1ccc2c(CSc3nc4ccccc4c(=O)n3CCCO)cc(=O)oc2c1	inconclusive: 29.1 µM [inhibitor, single point]
CCOc1ccccc1NC(=O)C1CCCN(S(=O)(=O)c2ccc3c(c2)CCCN3C(C)=O)C1 (configuration not stated)	active: 20.6 µM and active: 25.9 µM
CN(C(=O)COc1ccc(Cl)cc1Cl)c1nnc(C23CC4CC(CC(C4)C2)C3)s1	inconclusive: 23.1 µM [inhibitor, single point]

SMILES	Potency
CCOC(=O)C1=C(c2ccc(OC)cc2)C(=O)c2ccccc2C1=O	active: 1.16 µM
O=C(C=Cc1ccccc1)c1cc(Br)ccc1O	inconclusive: 20.6 µM [inhibitor, single point]
c1coc(-c2nn3c(-c4ccco4)nnc3s2)c1	inactive
COc1ccccc1CNc1ncnc2nc[nH]c12	inactive and inconclusive: 23.1 µM [inhibitor, partial curve]
CCCN1CNc2c(c(=O)[nH]c(=S)n2CCc2ccc(OC)cc2OC)C1	inconclusive: 12.6 µM [inhibitor, partial curve]
CC(=O)Nc1ccc(N/C=C/C(=O)c2ccc(Cl)cc2)cc1	inactive
Cc1cccc(C)c1OCC(=O)Nc1cccc(S(=O)(=O)N2CCCC2)c1	inconclusive: 18.4 µM [inhibitor, single point]
CCCCNC(=O)CNC(=S)N(Cc1ccccc1)Cc1cccs1	inconclusive: 23.1 µM [inhibitor, single point]
Cc1cc(NC(=O)COC(=O)c2oc3c(ccc4ccccc43)c2C)no1	inconclusive: 29.1 µM [inhibitor, single point]
Cc1nc2cc3nc(C(F)(F)F)[nH]c3cc2[nH]1	inconclusive: 29.1 µM [inhibitor, single point]
COc1ccccc1CCN1CCCC(CN(C)Cc2ccc(OCCO)cc2)C1 (configuration not stated)	inconclusive: 16.4 µM [inhibitor, partial curve]
CN(C)CCCn1cnc2c(c1=N)C(c1ccccc1)c1ccc3ccccc3c1O2 (configuration not stated)	active: 6.51 µM
COC(=O)c1cc(-c2cccc([N+](=O)[O-])c2)c2c(=O)[nH]c(=O)n(C)c2n1	inconclusive: 13 µM [inhibitor, partial curve]
O=C(COC(=O)C12CC3CC(CC(O)(C3)C1)C2)Nc1ccc(Cl)c(S(=O)(=O)N2CCOCC2)c1	active: 29.1 µM
C/C(CCC12CC3CC(CC(C3)C1)C2)=N\NC(N)=S	active: 14.6 µM
COc1ccc(C(=O)Nc2cc(C(=O)NCCc3ccccc3)ccc2Cl)cc1	inconclusive: 9.2 µM [inhibitor, partial curve]
CC(=O)Nc1ccc2nc(NC(=O)CCc3ccccc3)sc2c1	inconclusive: 29.1 µM [inhibitor, single point]
CN(C)C(=O)c1cccc(-c2cnc3c(NC=O)cc(-c4cc(F)c(F)c(F)c4)cn23)c1	inconclusive: 16.4 µM [inhibitor, single point]
COc1ccc(N(CC(=O)Nc2ccc(Cl)cc2C)S(=O)(=O)c2ccccc2)c(OC)c1	inconclusive: 18.4 µM [inhibitor, single point]
CC1(c2nnc(-c3ccc(F)cc3)o2)CC(c2c(Cl)cccc2Cl)=NO1 (configuration not stated)	inconclusive: 29.1 µM [inhibitor, single point]
COc1cc(-c2nnc(SCC(=O)N3CCCc4ccccc43)o2)cc(OC)c1OC	inconclusive: 16.4 µM [inhibitor, single point]
Cc1ccc(C(=O)Nc2ccc([N+](=O)[O-])cn2)o1	inactive
COc1ccc(-c2[nH]ncc2/C=N\NC(=O)c2ccc(C(C)(C)C)cc2)cc1OC	inconclusive: 29.1 µM [inhibitor, single point]
Cc1ccc(S(=O)(=O)Oc2ccccc2[N+](=O)[O-])cc1	inactive

SMILES	Potency
CCc1ccc(S(=O)(=O)c2nnn3c2nc(Nc2cccc(C)c2C)c2sccc23)cc1	active: 23.1 µM
CCCc1c(C)nc(N2CCN(c3ccc(F)cc3)CC2)[nH]c1=O	inconclusive: 23.1 µM [inhibitor, single point]
CC(C)(C)c1ccccc1OCCN1CCCC1	inactive
O=C1C(Cc2ccccc2)Nc2ncnc(N3CCCCC3)c2N1Cc1ccc(Cl)cc1 (configuration not stated)	inconclusive: 23.1 µM [inhibitor, single point]
O=C(O)/C=C/c1cccc(NS(=O)(=O)c2ccccc2)c1	inactive
CS(=O)(=O)N(CC(=O)NCC1CCCO1)c1cc(Cl)cc(Cl)c1 (configuration not stated)	inactive
Cc1nc(SCC(=O)N2CCN(c3ccccc3)CC2)c2oc3ccccc3c2n1	inconclusive: 20.6 µM [inhibitor, single point]
O=C(Nc1ccc(N2CCOCC2)cc1)c1ccc(Cl)c(S(=O)(=O)N2CCCC2)c1	inconclusive: 20.6 µM [inhibitor, partial curve]
COc1cc(C)c(CN2CCC(Oc3ccc(C(=O)N4CCCC4)cc3)CC2)cc1C	inconclusive: 20.6 µM [inhibitor, single point]
CN(Cc1ccco1)c1nc(-c2ccccc2C(F)(F)F)nc2ccccc12	inconclusive: 25.9 µM [inhibitor, single point]
CC(C)C[C@H]1CN(CCCC[C@@H]2CNC(=O)C(=O)N2CC2CCCCC2)C(=O)C(=O)N1CC1CCCCC1	inactive
COc1cc(OC)cc(-c2noc(-c3csc([C@@H]4O[C@H](CO)[C@H](O)[C@H](O)[C@H]4O)n3)n2)c1	inactive
CCCN(C(=O)CCn1cnc2onc(-c3ccc(F)cc3)c2c1=O)c1ccccc1C	active: 18.4 µM
COc1cccc(NC(=O)CN(C)C(=O)/C=C/c2cn(-c3ccccc3)nc2-c2ccc(OC)c(OC)c2)c1	inconclusive: 23.1 µM [inhibitor, single point]
CC(=O)Oc1ccccc1C(=O)NC(C)CCc1ccccc1 (configuration not stated)	inactive
Clc1ccccc1Nc1nc(NCC2CC2)nc2ccsc12	active: 20.6 µM
COc1ccccc1N(CC(=O)N(CC(C)C)CC(C)C)S(=O)(=O)c1cccs1	inconclusive: 16.4 µM [inhibitor, single point]
COc1cc(-c2noc(C)c2-c2ccc(N(C)C)nc2)cc(OC)c1OC	active: 25.1 nM and active: 130 nM
CCOC(=O)c1cnc(SC)nc1N	inactive
O=S1(=O)C[C@H](N2CC[C@@H](O)C2)[C@@H](COCc2ccccc2)N1	inactive
O=C(NC(=S)Nc1ccccc1Cl)c1ccco1	inactive
Cc1cc(C)cc(C(=O)Nc2c3c(nn2-c2ccccc2C)CS(=O)(=O)C3)c1	inactive
COc1ccc(Cc2c(-c3ccc(F)cc3)nc3cc(C)c(Br)c(C)n23)c(C)c1	inconclusive: 16.4 µM [inhibitor, partial curve]
C=CCNC(=S)/N=c1/ccccn1Cc1ccccc1	active: 7.31 µM
